{
  "source": "paper PMC12136788",
  "binders": {"B1": {"name": "ENSG00000136451:be:win_1501|CDS_3pUTR|ENSG00000136451|bound_else_gene|NA|bound_elsewhere_windowed (ssRNA)", "RNA": "GGGAGUUCUACAGUCCGACGAUCGCAAUGAGACCUGUAGAGAGCAUGCCUUUCUUGCCCCAAGCUUUGCCUACAUCACCGCCUUGGUAAACAGUAUUAUAAAAUCAAAAUAUGGGUAAAAGUAAAUAUUUACCAGCAACUUAACAACAGAGGAUUGAGCAUCA"}, "B2": {"name": "ENSG00000198589:be:win_801|CDS|ENSG00000198589|bound_else_gene|NA|bound_elsewhere_windowed (ssRNA)", "RNA": "GGGAGUUCUACAGUCCGACGAUCUCAUUUUGUUGGAGGCUGUUUGAUUGUAACAUCAAUAAAGUCAAAAGGAAAAGGCUUUCAACACUGUGUGAAAUUUGAUUUCAAGCCACAAAAGUGGUAUAUGGUUACCAUAGUACACAUCAACAGAGGAUUGAGCAUCA"}, "B3": {"name": "chr2:112756978:112757080:-|CDS|ENSG00000169607|unk|FALSE|unique (ssRNA)", "RNA": "GGGAGUUCUACAGUCCGACGAUCCUUCUGGGCAAAAGGCUGACUUCAGAAUGUGUUUCUUCUAACCCAUACUCUAAGCCUUCUAGCAAGAGUUUUCAACAGUGUGAAGCUGGAUCGUCCACAACAGGAGAACUGUCAAGAAAACAACAGAGGAUUGAGCAUCA"}, "B4": {"name": "chr6:145805060:145805161:-|CDS|ENSG00000118496|unk|FALSE|bound_elsewhere (ssRNA)", "RNA": "GGGAGUUCUACAGUCCGACGAUCAGAAGAUCCUAUGGGCCUCCAAGGAAUAGAUCUGAUCACAGCAGCAUUGCUUUUUUGUCUAGGAGAUUCUCCAGGAGGGAGGGGUAUAUCUGAUAGCCGCAUGGCUGAUAUUUAUCACAUCAACAGAGGAUUGAGCAUCA"}, "B5": {"name": "chr11:130404922:130405557:-|three_prime_utr|ENSG00000134917|control|control|control (ssRNA)", "RNA": "GGGAGUUCUACAGUCCGACGAUCAUGGGGCGGCAGACCCUAUCAUCAACUGUCCAGUGGACUGGACCUUGCUCGGGUUCAAGUAGAGGGCAUAGGUUAAAAGGUAAAAGUGCACUUAUUGACUCAGACAGGACACUCAGCGUCCAACAGAGGAUUGAGCAUCA"}, "B6": {"name": "chr8:48920054:48920155:-|CDS|ENSG00000019549|unk|FALSE|unique (ssRNA)", "RNA": "GGGAGUUCUACAGUCCGACGAUCACCUAUUCAACUUUUUCUGGGCUGGCCAAACAUAAGCAGCUGCACUGCGAUGCCCAGUCUAGAAAAUCUUUCAGCUGUAAAUACUGUGACAAGGAAUAUGUGAGCCUGGGCGCCCUGAAGCAACAGAGGAUUGAGCAUCA"}, "B7": {"name": "chr2:159432892:159433005:-|CDS|ENSG00000123636|unk|total|mutant (ssRNA)", "RNA": "GGGAGUUCUACAGUCCGACGAUCACACCUGUAAUGCCCUCUGCCUCUCCCAUCCUGCACCGUCAAGGGAAGGAAAAAGCAGUCCGCAAUAAUGUAAACCCAGUAAAAACACAGCAUCACUCCCAUCCUGCAAAAUCUUCCGUGCAACAGAGGAUUGAGCAUCA"}, "B8": {"name": "chr22:20586770:20586871:+|3pUTR|ENSG00000099917|unk|total|mutant (ssRNA)", "RNA": "GGGAGUUCUACAGUCCGACGAUCACACGCCUCCUGUCAGACACUUCCCGGUGUUGGCUUCCUCCGAGAGCCUGGGGUCCGGUCCGCUUUCCUGCUUUUAUCUUCUGCCUUGGGGACCUGCCAAACGAAAUCCCACACCUGUACCAACAGAGGAUUGAGCAUCA"}, "B9": {"name": "ENSG00000070961:be:win_1051|CDS|ENSG00000070961|bound_else_gene|NA|bound_elsewhere_windowed (ssRNA)", "RNA": "GGGAGUUCUACAGUCCGACGAUCAAAGCAAAUUUGCCAAAAAAGGAAAAAUCUGUUUUACAAGGGAAACUUACAAAACUGGCUGUUCAGAUUGGCAAAGCAGGUCUGUUGAUGUCUGCCAUCACAGUUAUCAUUCUAGUAUUACAACAGAGGAUUGAGCAUCA"}, "B10": {"name": "chr5:177457090:177457109:-|3pUTR|ENSG00000113758|msi1_unk|total|mutant (ssRNA)", "RNA": "GGGAGUUCUACAGUCCGACGAUCGGCCGUUGAGACGCUGUUGCAAAUUCCACCCCUCCUUCCCUGGUCCAGAUUGCCGCUCUCCGUCCUCCCUGCUCAGCUGGCCGGGUUGGAGGCCUCACCCUGCUUGGGGCCUGGCGUGGGCAACAGAGGAUUGAGCAUCA"}, "B11": {"name": "ENSG00000124766:be:win_3601|3pUTR|ENSG00000124766|bound_else_gene|NA|bound_elsewhere_windowed (ssRNA)", "RNA": "GGGAGUUCUACAGUCCGACGAUCUGUACUGCGUUUUUCAUUCUUGUAUUUGACUAUUUAAUCCUUUCUACUUGUCGCUAAAUAUAAUUGUUUUAGUCUUAUGGCAUGAUGAUAGCAUAUGUGUUCAGGUUUAUAGCUGUUGUGCAACAGAGGAUUGAGCAUCA"}, "B12": {"name": "chr5:177595998:177596040:+|3pUTR|ENSG00000184840|msi1_unk|total|mutant (ssRNA)", "RNA": "GGGAGUUCUACAGUCCGACGAUCCCUGAGCUGCUUCACAUGGUUGUCCAUUCUGGGGCUUAAAGAACUGGGACCAGACCAAGCCGAGGCCUUGGUGCUGGUUGGGGUGGGGCCUGCAGAGUCUCCGUUACUGAUUUCAUUUUCCAACAGAGGAUUGAGCAUCA"}, "B13": {"name": "chr7:82949737:82949846:-|CDS|ENSG00000186472|unk|FALSE|unique (ssRNA)", "RNA": "GGGAGUUCUACAGUCCGACGAUCAAGUCCUCAAUAUCUGAGUGCCACAUCUCCACCCAAAGACAAGAAACGCCCAACACCUUUAGAGAUUGGUUAUUCAUCUCACCUCCGGGCAGAUUCCACAGUACAGCUGGCUCCUUCCCCCAACAGAGGAUUGAGCAUCA"}, "B14": {"name": "chr5:56881662:56881777:+|CDS|ENSG00000095015|unk|total|mutant (ssRNA)", "RNA": "GGGAGUUCUACAGUCCGACGAUCGAUCUACUUGAGUUCUGCAAGAAUGGUUACUACAGUACCCCAUGUGUUUUCAAAACUGUCCGAAAUGCUGAGUGUUUCCAGUUCCACUCACUUCACCAGGAUGCGUCGCCGUUUGAUGGCCAACAGAGGAUUGAGCAUCA"}, "B15": {"name": "chr9:133763799:133763900:-|3pUTR|ENSG00000160293|msi1|total|mutant (ssRNA)", "RNA": "GGGAGUUCUACAGUCCGACGAUCCGAACCGUUUCACUGUCAGCCUGCCCUCGGCGACCCAUCACUGGGUAUGCUAUUGUACACCGAGGAAACCUGGGCCCGCCCCACCCAGAGCGCAGAGGAGGGGGCACCGACAGCGCUGCGCAACAGAGGAUUGAGCAUCA"}, "B16": {"name": "chr9:137457406:137457901:-|CDS|ENSG00000165802|control|control|control (ssRNA)", "RNA": "GGGAGUUCUACAGUCCGACGAUCCGCCUGUCCCUCGUCUCCAACGGCUGCUACGAGGGCAGCCUCUCAGAGGAGCCCAGCAUUAGGAAGCCCGCAGGCGAGGGCCCUCAGCCUCGAGUGUACACCAUCUCUGGGGAGCCUGCCCAACAGAGGAUUGAGCAUCA"}, "B17": {"name": "chr3:179334110:179334217:+|CDS|ENSG00000121864|unk|FALSE|unique (ssRNA)", "RNA": "GGGAGUUCUACAGUCCGACGAUCACAUACAAAAAUUUUUCCUCAUGUUUGUGAUGACUGUGGGAAAGGCUUUUCAAGUAUGCUAGAAUAUUGCAAGCAUUUAAAUUCACAUUUAUCUGAAGGGAUUUAUUUAUGUCAAUAUUGCAACAGAGGAUUGAGCAUCA"}, "B18": {"name": "chr3:113978857:113979010:-|three_prime_utr|ENSG00000163617|control|control|control (ssRNA)", "RNA": "GGGAGUUCUACAGUCCGACGAUCGCAGAAGAACAUUACUCUUUGUUCCUGCAGAGGAAAUACAUGCUGACGUGGUUCCAGCGUAGUCAGGAAAGUCUGGCUAGAAAGAUGGCCCAGGCUGAUCAAUUUUAUUCCCAAAUACUGCAACAGAGGAUUGAGCAUCA"}, "B19": {"name": "chr1:153662446:153662560:-|CDS|ENSG00000143621|unk|FALSE|unique (ssRNA)", "RNA": "GGGAGUUCUACAGUCCGACGAUCAAUCACCUUUUUCUCUUUCCUAGAUCUUGCUUCUGAAAUAUCUACCUGGGAUGGAGUGAUAGUAACACCUUCAGAAAAGGCUUAUGAGAAGCCACCAGAGAAGAAGGAAGGAGAGGAAGACAACAGAGGAUUGAGCAUCA"}, "B20": {"name": "chr4:67508813:67509105:-|CDS|ENSG00000145241|control|control|control (ssRNA)", "RNA": "GGGAGUUCUACAGUCCGACGAUCAUGCAUCACAAUAGUAGCCGAAAAUCUACUAAGAAAACAAAUCAGUCAUCUAAGAAUAUUAGGAAAAAAACUAUUCCACUUAAAAGGCAGAAGACAGCAACUAAAGGCAACCAAAGAGUACAACAGAGGAUUGAGCAUCA"}, "B21": {"name": "chr3:51993521:51994126:-|three_prime_utr|ENSG00000162244|control|control|control (ssRNA)", "RNA": "GGGAGUUCUACAGUCCGACGAUCCAGCUUCAGUUCCAGCUCAGGCUCCCAAACGUACCCAGGCCCCUACAAAGGCUUCAGAGUAGAUAUCUCUGCCAACAUGAGGACAGAAGGACUGGUGCGACCCCCCACCCCCGCCCCUGGCAACAGAGGAUUGAGCAUCA"}, "B22": {"name": "chr22:46679111:46679212:+|3pUTR|ENSG00000075240|msi1|total|mutant (ssRNA)", "RNA": "GGGAGUUCUACAGUCCGACGAUCAGGGCCCGGCAGUGCCCAAGGAUGGGUCCGGGGCCUCGGGGCCAAUGAGCGCCUCUUCCCCGGUGCUGGGAUUCAGUCCCCAAACACAGCGGGAGGGGUCCCUGGGGCAGAUGGGGCUUUCAACAGAGGAUUGAGCAUCA"}},
  "note": "This is one part of the list.",
  "data": [
    {"target": "T1, UNK ZnF1-6 (called full-length) (human, UniProt Q9C0B0 30-357)", "T1 sequence": "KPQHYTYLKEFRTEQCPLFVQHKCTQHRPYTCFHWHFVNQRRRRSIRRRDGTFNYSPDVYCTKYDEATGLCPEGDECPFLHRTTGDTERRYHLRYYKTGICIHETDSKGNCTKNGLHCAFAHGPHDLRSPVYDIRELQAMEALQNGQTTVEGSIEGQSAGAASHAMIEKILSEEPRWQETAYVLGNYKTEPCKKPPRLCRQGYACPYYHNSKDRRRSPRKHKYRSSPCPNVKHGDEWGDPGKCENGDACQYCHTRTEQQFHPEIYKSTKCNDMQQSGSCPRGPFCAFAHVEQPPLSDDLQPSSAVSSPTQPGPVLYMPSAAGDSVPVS", "assay": "nsRBNS (natural sequence RNA bind-n-seq); RBNS binding buffer (assumed for nsRBNS): 25 mM Tris pH 7.5, 150 mM KCl, 3 mM MgCl2, 0.01% Triton X-100, 500 ug/ml BSA, 20 U/ml SUPERase-In, 4 C; UNK is unkempt and MSI1 is Musashi-1; names of the RNAs are library labels; protein concentration not given here; high values mean tight binding", "units": {"binding signal": "enrichment R"}, "values": [
      {"binder": "B1", "binding signal": 0.554},
      {"binder": "B2", "binding signal": 0.348},
      {"binder": "B3", "binding signal": 0.661},
      {"binder": "B4", "binding signal": 0.71},
      {"binder": "B5", "binding signal": 0.809},
      {"binder": "B6", "binding signal": 0.677},
      {"binder": "B7", "binding signal": 0.715},
      {"binder": "B8", "binding signal": 0.93},
      {"binder": "B9", "binding signal": 0.51},
      {"binder": "B10", "binding signal": 1.17},
      {"binder": "B11", "binding signal": 0.795},
      {"binder": "B12", "binding signal": 0.79},
      {"binder": "B13", "binding signal": 0.825},
      {"binder": "B14", "binding signal": 0.498},
      {"binder": "B15", "binding signal": 0.734},
      {"binder": "B16", "binding signal": 0.634},
      {"binder": "B17", "binding signal": 0.445},
      {"binder": "B18", "binding signal": 0.575},
      {"binder": "B19", "binding signal": 0.671},
      {"binder": "B20", "binding signal": 0.475},
      {"binder": "B21", "binding signal": 1.15},
      {"binder": "B22", "binding signal": 0.704}
    ]}
  ]
}
